To fix the notation:
T1: Sll0528 fused to the T18 fragment of adenylate cyclase CyaA (bacterial two-hybrid) (Synechocystis sp. PCC 6803) (UniProt Q55518)
T1 sequence: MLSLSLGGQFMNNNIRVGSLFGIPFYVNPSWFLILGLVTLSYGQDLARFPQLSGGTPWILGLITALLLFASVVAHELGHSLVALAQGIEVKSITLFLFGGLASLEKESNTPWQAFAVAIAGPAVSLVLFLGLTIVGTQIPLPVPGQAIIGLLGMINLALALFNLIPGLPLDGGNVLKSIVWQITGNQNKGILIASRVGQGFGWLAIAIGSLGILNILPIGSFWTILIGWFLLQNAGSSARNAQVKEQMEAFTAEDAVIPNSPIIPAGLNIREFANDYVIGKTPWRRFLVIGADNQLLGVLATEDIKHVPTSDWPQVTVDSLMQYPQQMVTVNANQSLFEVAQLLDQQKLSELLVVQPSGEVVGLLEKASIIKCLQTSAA

B1: unknown protein Ssl1972 fused to the T25 fragment of CyaA (bacterial two-hybrid) (protein, UniProt P72925 1-93)
chain: MISIDLTLKYSPMPVSVQRKEKDGAEALYQTIVTAMQGDRPQVLELTCEKQTEKKVAIMSDQISAVIVSEKDGAASAGKVPGFAALGQIVNQG
B2: nucleoid-associated protein ebfC (Slr1847) fused to the T25 fragment of CyaA (bacterial two-hybrid) (protein, UniProt P73057 1-114)
chain: MAQGKGFGFGLGKIKELQEAFQKAQQVQEGAKVLQEELERMEIPGKSADGLVTVLMSGNQEPLSIEIDPSALEKGAEGLSASVTEAMKAAYAESTETMRSKMEELTSGLNLPGM
B3: zinc metalloprotease FtsH (Sll1463) fused to the T25 fragment of CyaA (bacterial two-hybrid) (protein, UniProt P73437 1-628)
chain: MAIKPQPQWQRRLASVLLWGSTIYLLVNLLAPALFRSQPPQVPYSLFIDQVEGDKVASVYVGQNEIRYQLKPEAEDEGKEKAAEGQILRTTPIFDLELPKRLEAKGIEFAAAPPAKNSWFGTLLSWVIPPLIFVGIWSFFLNRNNNGAPGGALAFTKSKAKVYVEGDSTKVTFDDVAGVEEAKTELSEVVDFLKFPQRYTALGAKIPKGVLLVGPPGTGKTLLAKAAAGEAGVPFFIISGSEFVELFVGAGAARVRDLFEQAKKQAPCIVFIDELDAIGKSRASGAFMGGNDEREQTLNQLLTEMDGFSAAGATVIVLAATNRPETLDPALLRPGRFDRQVLVDRPDLAGRLKILEIYAKKIKLDKEVELKNIATRTPGFAGADLANLVNEAALLAARNKQDSVTEADFREAIERVVAGLEKKSRVLSDKEKKIVAYHEVGHALVGAVMPGGGQVAKISIVPRGMAALGYTLQMPTEDRFLLNESELRDQIATLLGGRAAEEIVFDSITTGAANDLQRATDLAEQMVTTYGMSKVLGPLAYDKGQQNNFLGQGMGNPRRMVSDDTAKEIDLEVKEIVEQGHNQALAILEHNRDLLEAIAEKILEKEVIEGEELHHLLGQVQAPGTLVV
B4: transcription factor RbcR (Sll0998) fused to the T25 fragment of CyaA (bacterial two-hybrid) (protein, UniProt P73123 1-345)
chain: MSDIPFTLDQLRILKAIASEGSFKRAADTLYVSQPAVSLQVQNLEKQLSVPLFDRGGRKAQLTEAGHLLLNYGEKIITLCQETCRAIEDLQNLQGGTLIVGASQTTGTYLLPRMIGMFRQQYPDVTVQLQVHSTRRTAWGVANGQVDLAIIGGEVPAELQETLTVLPYAEDELALILPVLHPLAQAETIQKEDLYKLKFISLDSQSTIRKVIDKVLSQGEIDTKRLKIEMELNSIEAIKNAVQSGLGAAFVSTTAIEKELEMNVLHIAPIKNVEIRRVLSVIINPNRYRSKASAAFIREVLPQFSTHPDALDPERLFANPYSSNNGDRQGDGKDGKGSIEIDSVT
B5: signal recognition particle protein Slr1531 fused to the T25 fragment of CyaA (bacterial two-hybrid) (protein, UniProt P74214 1-482)
chain: MFDALADRLEDAWKKLRGQDKISESNIKEALQEVRRALLAADVNLQVVKGFIKDVEQKALGADVISGVNPGQQFIKIVYDELVNLMGESNVPLAQAEQAPTVILMAGLQGTGKTTATAKLALYLRKQKRSALMVATDVYRPAAIDQLKTLGQQIDVPVFDLGSDANPVEIARQGVEKAKELGVDTVLIDTAGRLQIDPQMMAELAEIKQVVKPDDTLLVVDAMTGQEAANLTHTFHEQIGITGAILTKLDGDTRGGAALSVRQISGQPIKFVGVGEKVEALQPFYPDRLASRILNMGDVLTLVEKAQEAIDVGDVEKLQNKILEATFDFDDFIKQMRFMKNMGSLGGLLKMIPGMNKLSSGDIEKGEKELKRTEAMISSMTTEERKNPDLLAKSPSRRRRIAQGSGHSETDVSKLITNFTKMRTMMQQMGMGGMPGGMPGMGAMPGMGGGMFGGQPGPGFRGYRGGGGKPKKKKKKKGFGQL
B6: global nitrogen regulator NtcA (Sll1423) fused to the T25 fragment of CyaA (bacterial two-hybrid) (protein, UniProt P33779 1-225)
chain: MDQSLTQDRPLAAVFRRLGSELMPPVVETFDRSKTIFFPGDPAERVYFLLKGAVKLSRVYEAGEEITVALLRENSVFGVLSLVTGQRSDRFYHAVAFTPVELLSAPIEQVEQALKEHPDLSLLMLQGLSSRILQTEMMIETLAHRDMGSRLVSFLLILCRDFGVPAPDGIRIDLKLSHQAIAEAIGSTRVTVTRLLGDLREGNMISITKKKITVHNPVALSQQFT
B7: heat shock protein, molecular chaperone Hsp17 (Sll1514) fused to the T25 fragment of CyaA (bacterial two-hybrid) (protein, UniProt P72977 1-146)
chain: MSLILYNPLREMDNFQQQMNQLFEEVFVPTDRHGDRQGFNPKAELTETEEAYVLKLELPGMDPDNLDIQAARDAVTVSGDRQDTHSTEKDGVRRTEFRYGSFRRVIPVPGAIQNTEVKANYDAGILTLTLPKVEEAKNKVVKVQLS
B8: probable Clp protease subunit Slr0165 fused to the T25 fragment of CyaA (bacterial two-hybrid) (protein, UniProt P74467 1-202)
chain: MPIGVPSVPFRLPGSQYERWIDIYTRLSQERIIFLGQEVNDSIANRIVAFLLYLDSDDPSKPIYLYINSPGGSVTAGMAIYDTMQYIKAEVITICVGLAASMGAFLLASGAPGKRLALPHARIMIHQPMGGTGRRQATDIDIEAREILRIRQQLNEIMAQRTGQTVEKIAKDTDRDYFLSAAEAKEYGLIDKVIENSTMGNN

No constants are given. Whether binding was seen depends on the method and setting. Some results given as binding are weak or reduced against the parent protein; the word gives no strength. Tags and fused reporters may be left off the sequences shown.

In the assay the target is T1, Sll0528 fused to the T18 fragment of adenylate cyclase CyaA (bacterial two-hybrid) (Synechocystis sp. PCC 6803). The assay can be described thus: two-hybrid; bacterial two-hybrid (BACTH, adenylate cyclase T18/T25) in E. coli BTH101; T18 at the N- or C-terminus of Sll0528, T25 at the N- or C-terminus of the partner (four combinations); X-Gal reporter plates with IPTG, 2 days at 30°C; blue colonies are positive.
As to B1, the binding result was “binds”.

As for B2, the binding result is on record as “binds”.

Regarding B3, the binding entry is “binds”.

For B4, the binding entry is “binds”.

Turning to B5, the binding entry is on record as “binds”.

In the case of B6, the binding result is “binds”.

For the molecule B7, the binding entry was “no binding”.

As for B8, the binding entry is “binds”.
